Measured values taken from PubChem BioAssay AID1460 (National Center for Advancing Translational Sciences (NCATS), 2008).
Out of some 270,000 compounds screened, about 5,800 (2.1%) were called active. The shares of active, inactive and inconclusive entries below differ from those in the screen. Calls follow the shape of the dose curve; as a rule, active = well fitted inhibition curve with a large enough effect; inconclusive = small, poorly fitted or top-dose-only effect; inactive = flat fitted curve, though single readings scatter. A potency beside an inconclusive call is a rough fit, not a confirmed value.

Target: Microtubule-associated protein tau (Homo sapiens) (UniProt P10636)
Test: qHTS for Inhibitors of Tau Fibril Formation, Thioflavin T Binding; also: nearly all actives have a fitted effect of over 55% in size
Conditions: recombinant tau K18 P301L (four-repeat tau fragment), heparin-induced fibrillization, ThT fluorescence; series mostly up to 57.4 µM
Method in brief: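 Heparin-induced (20 uM) aggregation of recombinant human K18 P301L tau, 15 uM unlabeled with 0.24 uM labeled, pH 7 acetate buffer, 6 hr at 37 C with compound. Fibrils quantified by 30 uM ThT fluorescence after 1 hr ambient incubation.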
% is scaled to controls: 0 for no effect and ±100 for the full control effect; potency is read from the fitted curve at half-maximal effect; tags tell the direction and shape of the fitted curve.

Chain of UniProt P10636 (P10636 whole entry, looked up): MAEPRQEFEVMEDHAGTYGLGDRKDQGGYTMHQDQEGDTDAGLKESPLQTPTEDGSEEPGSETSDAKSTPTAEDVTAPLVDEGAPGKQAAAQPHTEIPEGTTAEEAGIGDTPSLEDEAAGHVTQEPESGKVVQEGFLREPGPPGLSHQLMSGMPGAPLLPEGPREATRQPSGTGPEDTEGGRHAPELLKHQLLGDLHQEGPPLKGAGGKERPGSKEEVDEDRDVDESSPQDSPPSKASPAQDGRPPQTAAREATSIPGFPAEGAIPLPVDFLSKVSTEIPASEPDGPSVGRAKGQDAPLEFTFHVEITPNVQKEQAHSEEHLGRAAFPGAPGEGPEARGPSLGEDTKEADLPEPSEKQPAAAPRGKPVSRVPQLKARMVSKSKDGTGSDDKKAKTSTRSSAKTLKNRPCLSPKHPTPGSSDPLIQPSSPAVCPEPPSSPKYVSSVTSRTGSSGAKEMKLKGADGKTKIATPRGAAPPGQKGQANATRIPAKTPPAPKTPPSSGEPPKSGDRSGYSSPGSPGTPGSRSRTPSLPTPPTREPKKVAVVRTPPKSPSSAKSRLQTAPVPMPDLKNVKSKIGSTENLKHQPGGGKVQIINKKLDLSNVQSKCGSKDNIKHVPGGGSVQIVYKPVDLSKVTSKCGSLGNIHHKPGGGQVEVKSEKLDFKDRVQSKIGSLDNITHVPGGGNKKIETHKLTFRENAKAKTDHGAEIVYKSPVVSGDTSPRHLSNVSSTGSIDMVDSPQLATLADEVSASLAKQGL

Compound	Potency	activity, negative = inhibition
Cc1ccccc1C(=O)Nc1ccc(N2CCCC2)cc1	inconclusive: 17.8 µM [inhibitor, partial curve]	
Cc1ccc(/C=C2/NC(=O)N(c3ccccc3)C2=O)o1	active: 25.1 µM	
CC1CC(C)CN(C(=O)CCc2ccccc2)C1 (configuration not stated)	inactive	
COc1ccc(O[C@H]2C=C[C@@H](c3ccccc3)O[C@@H]2CO/N=C(\C)CCN2CCc3nc(-c4ccccc4)c(-c4ccccc4)cc3C2)cc1	inactive	
COc1ccccc1OC(=O)CCc1nc2ccccc2s1	inconclusive: 28.2 µM [inhibitor, partial curve]	
CCOc1cc(NS(=O)(=O)c2ccccc2)c(OCC)cc1NC(=O)c1ccco1	inconclusive: 31.6 µM [inhibitor, partial curve]	
Nc1nc(-c2ccccc2)cn1/N=C/c1ccccc1	inconclusive: 17.8 µM [inhibitor, partial curve]	
COc1ccc(-c2nc(C=O)cs2)cc1	inconclusive: 17.8 µM [inhibitor, partial curve]	
Cc1cccc2nc(CSc3nc4ccc([N+](=O)[O-])cc4[nH]3)cn12	inconclusive: 10 µM [inhibitor, partial curve]	
COc1cc(-c2nc(S(=O)(=O)c3ccc(C)cc3)c(N(C)C)o2)cc(OC)c1OC	inconclusive: 28.2 µM [inhibitor, partial curve]	
CC(C)(C)OC(=O)CNC(=O)c1[nH]cnc1C(=O)Nc1ccc(Cl)cc1	inconclusive: 39.8 µM [activator, single point]	
CCc1noc(-c2ccc(N3CCCCC3)c([N+](=O)[O-])c2)n1	inactive	
O=C(NC1CCCCC1)N(Cc1cc2cc3c(cc2[nH]c1=O)OCCO3)C1CCCCC1	inconclusive: 10 µM [inhibitor, partial curve]	
N=C(N)c1ccc(Cl)cc1	inactive	
O=C(O)CCCC(=O)Nc1ccccc1C(=O)N1CCOCC1	inactive	
C[C@H]1O[C@@H](n2cc(F)c(=O)[nH]c2=O)[C@H](O)[C@@H]1O	inconclusive: 3.16 µM [inhibitor, single point]	
Cc1cc(C)c2sc(N(CCN(C)C)C(=O)c3cc(Cl)sc3Cl)nc2c1	inactive	
COc1ccc(C(=O)Nc2ccc(N3CCOCC3)c(C(F)(F)F)c2)cc1OC	inconclusive: 28.2 µM [inhibitor, partial curve, poor fit]	
Cc1cc(C(=O)Nc2sc(C)c(C)c2C#N)no1	inconclusive: 28.2 µM [inhibitor, single point]	
CCc1ccc(C2=C(C)C(N3CCC(C(=O)NCCc4ccco4)CC3)=NS2(=O)=O)cc1	inactive	
CCn1c(COc2cccc(C)c2C)nnc1SCC(=O)N1CCN(c2ccc(OC)cc2)CC1	inconclusive: 1 µM [inhibitor, full curve]	
CCOC(=O)C1(C(C)C)Oc2ccccc2C(c2ccc(OC)cc2)=C1C(=O)OC (configuration not stated)	inconclusive: 0.398 µM [inhibitor, full curve, poor fit]	
CCCCn1c(-c2ccoc2C)n[nH]c1=S	inactive	

Compound	Potency	activity, negative = inhibition
CC(C)(C)C(=O)NCCCc1nc2ccccc2n1CCCOc1ccc(Cl)cc1	inconclusive: 28.2 µM [inhibitor, partial curve]	
Cc1ccc2nc(Nc3ccc4[nH]c(=O)[nH]c4c3)c(-n3nc(C)cc3C)nc2c1	inconclusive: 22.4 µM [inhibitor, partial curve]	
O=C(COC(=O)C1c2ccccc2Oc2ccccc21)Nc1ccc2c(c1)OCO2	inconclusive: 35.5 µM [inhibitor, single point]	
Cc1ccc(C(=O)/C=C/c2ccc(-c3ccccc3[N+](=O)[O-])o2)cc1	active: 8.91 µM	
O=C(Oc1ccc2c3c(c(=O)oc2c1)CCC3)c1ccco1	inconclusive: 44.7 µM [inhibitor, single point]	
COc1ccc(N2CCN(C(=O)CCCn3c(=O)[nH]c4ccsc4c3=O)CC2)cc1	inconclusive: 12.6 µM [inhibitor, partial curve, poor fit]	
Cc1ccc(-c2nsc3c(N4CCN(C(=O)c5ccco5)CC4)ncnc23)cc1	inconclusive: 2.51 µM [inhibitor, partial curve]	
O=C(COC(=O)/C=C/c1cccs1)NC(=O)Cc1ccccc1	inactive	
O=C(COC(=O)C1CC(O)CN1S(=O)(=O)c1ccc(Cl)cc1)c1ccccc1Cl (configuration not stated)	inactive	
O=C(C[n+]1ccc(-c2nnc3n2CCC3)cc1)c1ccc(Cl)cc1	inconclusive: 7.94 µM [inhibitor, full curve]	
CCS(=O)(=O)N1CCN(c2ccc([N+](=O)[O-])c(NC(C)c3ccccc3)c2)CC1 (configuration not stated)	inconclusive: 6.31 µM [inhibitor, partial curve]	
CN(C)c1ccc(C(CNS(=O)(=O)c2ccc(F)cc2)N2CCc3ccccc32)cc1 (configuration not stated)	inconclusive: 12.6 µM [inhibitor, partial curve]	
O=C(/C=C/c1cccc(F)c1)c1ccc(N2CCOCC2)cc1	active: 12.6 µM	
O=C(NCCc1c[nH]c2ccccc12)Nc1cccc2ccccc12	inconclusive: 15.8 µM [inhibitor, partial curve]	
CN(C)CCCN(C(=O)CCc1ccccc1)c1nc2c(F)cccc2s1	inconclusive: 0.398 µM [activator, full curve, poor fit]	
COc1ccc(C(=O)c2coc3ccc(O)c(CN4CCCCC4)c23)cc1	inactive	
C=Cc1ccc(Cn2c(=O)cc(C)c3c(C)nn(C)c32)cc1	inconclusive: 25.1 µM [inhibitor, single point]	
COc1cc(/C=N/NC(=O)c2cc(-c3c(C)nn(-c4ccccc4)c3C)n[nH]2)ccc1O	inconclusive: 3.55 µM [inhibitor, full curve]	
COC(=O)c1cccc(-n2nnnc2SCC(=O)Nc2nc3c(s2)CCCC3)c1	inconclusive: 14.1 µM [inhibitor, partial curve]	
CC(=O)c1cc(C#N)c(SCc2ccc([N+](=O)[O-])cc2)nc1C	inconclusive: 12.6 µM [inhibitor, partial curve]	
OC(COC(c1ccc(Cl)cc1)c1ccc(Cl)cc1)CN1CCc2ccccc2C1 (configuration not stated)	inconclusive: 20 µM [inhibitor, single point]	
COc1ccc(NC(=O)c2cc3c(=O)n(Cc4cccnc4)ccc3nc2C)cc1Cl	inconclusive: 39.8 µM [inhibitor, single point]	
CCOCCCn1cnc2c(c1=O)c1nc3ccccc3nc1n2-c1ccccc1	inconclusive: 15.8 µM [inhibitor, partial curve]	

Compound	Potency	activity, negative = inhibition
CCn1c(-c2ccc(F)cc2)cnc1SCC(=O)N1CCCCC1C (configuration not stated)	inactive	
CCCCC1=CC2=C(c3ccco3)C(=O)C(C)(OC(=O)c3ccc(OC)cc3)C(=O)C2=CN1CCN1CCOCC1 (configuration not stated)	inconclusive: 20 µM [inhibitor, partial curve]	
COC(=O)c1scc(C)c1N/N=C(\C)c1ccc(F)cc1F	inconclusive: 20 µM [inhibitor, partial curve]	
O=C(Nc1nc(-c2ccc(-c3ccccc3)cc2)cs1)c1cnccn1	inactive	
Cc1ccc(NCCC(=O)c2ccc(Cl)c(Cl)c2)cc1	inconclusive: 15.8 µM [inhibitor, partial curve]	
O=c1c(S(=O)(=O)c2ccc(Cl)cc2)cn(Cc2ccc(F)cc2)c2ccc(F)cc12	inconclusive: 2.82 µM [inhibitor, full curve, poor fit]	
Cc1ccccc1-c1nnc(-c2ccc(Br)cc2)o1	inactive	
CC(C)(C)c1ccc(NC(=O)CSc2nnc(-c3n[nH]c4ccccc34)o2)cc1	inactive	
COc1ccc(NC(=O)/C=C2\SC(=O)NC2=O)cc1	inconclusive: 15.8 µM [inhibitor, partial curve]	
COC(=O)c1sc(N2C(=O)C(O)=C(C(=O)c3ccc(C)o3)C2c2ccc(F)cc2)nc1C (configuration not stated)	inconclusive: 28.2 µM [inhibitor, partial curve]	
CSc1ccc2[nH]c(=O)cc(C)c2c1	inconclusive: 35.5 µM [inhibitor, single point]	
CO[C@@H]1COC(=O)C/C=C\[C@@H](C)[C@H](OC)COC(=O)C/C=C\[C@H]1C		inactive: -6.71% [at 11.5 µM]
COc1ccc(OC)c(NC(=O)CCc2nc(-c3ccc(C)cc3)no2)c1	inconclusive: 25.1 µM [inhibitor, single point]	
CCOC(=O)C1=c2s/c(=C\c3cccnc3)c(=O)n2C(N)=C(C(=O)OC)C1c1cccnc1 (configuration not stated)	inconclusive: 2.51 µM [inhibitor, partial curve]	
C=CCn1c(NC(=O)c2ccc(Br)o2)c(S(=O)(=O)c2ccccc2)c2nc3ccccc3nc21	active: 20 µM	
CC(C)c1ccc(/C=C2\Oc3c(ccc(O)c3CN3CCN(C)CC3)C2=O)cc1	inactive	
CCOC(=O)C1CCCN(C(=O)c2cnn3c(C(F)F)cc(-c4ccc(C)cc4)nc23)C1 (configuration not stated)	inactive	
O=[N+]([O-])c1cc(S(=O)(=O)N2CCCC2)ccc1N/N=C1/CCCc2ccccc21	inconclusive: 2.82 µM [inhibitor, full curve]	
O=c1c(N2CCc3ccccc3C2)csc2ccc(Br)cc12	inconclusive: 1.58 µM [inhibitor, full curve]	
Cc1cc(NC(=O)CSc2nc(CCC3CCCC3)nc3ccccc23)no1	inactive	
COc1ccc(C(=O)NCC(c2ccc3c(c2)OCO3)N2CCN(c3ccc(F)cc3)CC2)cc1 (configuration not stated)	inconclusive: 20 µM [inhibitor, partial curve, poor fit]	
